Reference: the supplement of paper PMC11876631
± gives the standard deviation of the averaged measurements. Laboratory Escherichia coli strains with one amino-acid change in an essential protein, pooled on minimal glucose agar with carbenicillin or gentamicin at twice the control MIC (plus kanamycin and chloramphenicol for the plasmids), 48 h. Fold change of barcode share against drug-free plates; higher = less susceptible. Active = above 20 in both replicates (the paper's putatively resistant). '<' = one read or none on drug, '>' = one read or none on a drug-free plate. Shares are relative, so most strains fall below 1 when a few take over. Listed are strains with at least 15 reads on both drug-free plates, and hits; most hits rest on fewer reference reads. Replicate rank correlation about 0.5. Edits are read from barcodes.

Target: Escherichia coli (laboratory strain)
Test: barcode share on antibiotic plates over drug-free plates; higher = less susceptible
Protocol: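 A pool of E. coli strains, each edited to carry one amino-acid change in an essential protein, was grown for 48 h on minimal glucose agar with or without antibiotic; strain barcodes were sequenced; mean of two replicates.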

[1] = antibiotic: carbenicillin, 2× MIC (3.1 µg/mL)
[2] = antibiotic: gentamicin, 2× MIC (MIC 0.45 µg/mL)

Protein	fold change of barcode share [1]	fold change of barcode share [2]
aroA L352A (protein) MESLTLQPIARVDGTINLPGSKSVSNRALLLAALAHGKTVLTNLLDSDDVRHMLNALTALGVSYTLSADRTRCEIIGNGGPLHAEGALELFLGNAGTAMRPLAAALCLGSNDIVLTGEPRMKERPIGHLVDALRLGGAKITYLEQENYPPLRLQGGFTGGNVDVDGSVSSQFLTALLMTAPLAPEDTVIRIKGDLVSKPYIDITLNLMKTFGVEIENQHYQQFVVKGGQSYQSPGTYLVEGDASSASYFLAAAAIKGGTVKVTGIGRNSMQGDIRFADVLEKMGATICWGDDYISCTRGELNAIDMDMNHIPDAAMTIATAALFAKGTTTLRNIYNWRVKETDRLFAMATEARKVGAEVEEGHDYIRITPPEKLNFAEIATYNDHRMAMCFSLVALSDTPVTILDPKCTAKTFPDYFEQLARISQAA	0.432 ± 0.052	0.00643 ± 0.0032
aroA L352Q (protein) MESLTLQPIARVDGTINLPGSKSVSNRALLLAALAHGKTVLTNLLDSDDVRHMLNALTALGVSYTLSADRTRCEIIGNGGPLHAEGALELFLGNAGTAMRPLAAALCLGSNDIVLTGEPRMKERPIGHLVDALRLGGAKITYLEQENYPPLRLQGGFTGGNVDVDGSVSSQFLTALLMTAPLAPEDTVIRIKGDLVSKPYIDITLNLMKTFGVEIENQHYQQFVVKGGQSYQSPGTYLVEGDASSASYFLAAAAIKGGTVKVTGIGRNSMQGDIRFADVLEKMGATICWGDDYISCTRGELNAIDMDMNHIPDAAMTIATAALFAKGTTTLRNIYNWRVKETDRLFAMATEQRKVGAEVEEGHDYIRITPPEKLNFAEIATYNDHRMAMCFSLVALSDTPVTILDPKCTAKTFPDYFEQLARISQAA	0.518 ± 0.036	0.0118 ± 0.0022
aroA L352P (protein) MESLTLQPIARVDGTINLPGSKSVSNRALLLAALAHGKTVLTNLLDSDDVRHMLNALTALGVSYTLSADRTRCEIIGNGGPLHAEGALELFLGNAGTAMRPLAAALCLGSNDIVLTGEPRMKERPIGHLVDALRLGGAKITYLEQENYPPLRLQGGFTGGNVDVDGSVSSQFLTALLMTAPLAPEDTVIRIKGDLVSKPYIDITLNLMKTFGVEIENQHYQQFVVKGGQSYQSPGTYLVEGDASSASYFLAAAAIKGGTVKVTGIGRNSMQGDIRFADVLEKMGATICWGDDYISCTRGELNAIDMDMNHIPDAAMTIATAALFAKGTTTLRNIYNWRVKETDRLFAMATEPRKVGAEVEEGHDYIRITPPEKLNFAEIATYNDHRMAMCFSLVALSDTPVTILDPKCTAKTFPDYFEQLARISQAA	0.962 ± 0.48	0.0247 ± 0.0056
aroB V164W (protein) MERIVVTLGERSYPITIASGLFNEPASFLPLKSGEQVMLVTNETLAPLYLDKVRGVLEQAGVNVDSVILPDGEQYKSLAVLDTVFTALLQKPHGRDTTLVALGGGVVGDLTGFAAASYQRGVRFIQVPTTLLSQVDSSVGGKTAVNHPLGKNMIGAFYQPASVWVDLDCLKTLPPRELASGLAEVIKYGIILDGAFFNWLEENLDALLRLDGPAMAYCIRRCCELKAEVVAADERETGLRALLNLGHTFGHAIEAEMGYGNWLHGEAVAAGMVMAARTSERLGQFSSAETQRIITLLKRAGLPVNGPREMSAQAYLPHMLRDKKVLAGEMRLILPLAIGKSEVRSGVSHELVLNAIADCQSA	0.914 ± 0.25	0.0295 ± 0.014
leuC V32A (protein) MAKTLYEKLFDAHVVYEAENETPLLYIDRHLAHEVTSPQAFDGLRAHGRPVRQPGKTFATMDHNVSTQTKDINACGEMARIQMQELIKNCKEFGVELYDLNHPYQGIVHVMGPEQGVTLPGMTIVCGDSHTATHGAFGALAFGIGTSEVEHVLATQTLKQGRAKTMKIEVQGKAAPGITAKDIVLAIIGKTGSAGGTGHVVEFCGEAIRDLSMEGRMTLCNMAIEMGAKAGLVAPDETTFNYVKGRLHAPKGKDFDDAVAYWKTLQTDEGATFDTVVTLQAEEISPQVTWGTNPGQVISVNDNIPDPASFADPVERASAEKALAYMGLKPGIPLTEVAIDKVFIGSCTNSRIEDLRAAAEIAKGRKVAPGVQALVVPGSGPVKAQAEAEGLDKIFIEAGFEWRLPGCSMCLAMNNDRLNPGERCASTSNRNFEGRQGRGGRTHLVSPAMAAAAAVTGHFADIRNIK	1.72 ± 0.87	0.0148 ± 0.0041
accA M114A (protein) MSLNFLDFEQPIAELEAKIDSLTAVSRQDEKLDINIDEEVHRLREKSVELTRKIFADLGAWQIAQLARHPQRPYTLDYVRLAFDEFDELAGDRAYADDKAIVGGIARLDGRPVAIIGHQKGRETKEKIRRNFGMPAPEGYRKALRLMQMAERFKMPIITFIDTPGAYPGVGAEERGQSEAIARNLREMSRLGVPVVCTVIGEGGSGGALAIGVGDKVNMLQYSTYSVISPEGCASILWKSADKAPLAAEAMGIIAPRLKELKLIDSIIPEPLGGAHRNPEAMAASLKAQLLADLADLDVLSTEDLKNRRYQRLMSYGYA	0.379 ± 0.062	0.00358 ± 0.0019
leuA I254A (protein) MSQQVIIFDTTLRDGEQALQASLSVKEKLQIALALERMGVDVMEVGFPVSSPGDFESVQTIARQVKNSRVCALARCVEKDIDVAAESLKVAEAFRIHTFIATSPMHIATKLRSTLDEVIERAIYMVKRARNYTDDVEFSCEDAGRTPIADLARVVEAAINAGATTINIPDTVGYTMPFEFAGIISGLYERVPNIDKAIISVHTHDDLGLAVGNSLAAVHAGARQVEGAMNGIGERAGNCSLEEVIMAIKVRKDALNVHTAINHQEIWRTSQLVSQICNMPIPANKAIVGSGAFAHSSGIHQDGVLKNRENYEIMTPESIGLNQIQLNLTSRSGRAAVKHRMDEMGYKESEYNLDNLYDAFLKLADKKGQVFDYDLEALAFIGKQQEEPEHFRLDYFSVQSGSNDIATAAVKLACGEEVKAEAANGNGPVDAVYQAINRITEYNVELVKYSLTAKGHGKDALGQVDIVANYNGRRFHGVGLATDIVESSAKAMVHVLNNIWRAAEVEKELQRKAQHNENNKETV	0.399 ± 0.092	< 0.00533
leuA I254P (protein) MSQQVIIFDTTLRDGEQALQASLSVKEKLQIALALERMGVDVMEVGFPVSSPGDFESVQTIARQVKNSRVCALARCVEKDIDVAAESLKVAEAFRIHTFIATSPMHIATKLRSTLDEVIERAIYMVKRARNYTDDVEFSCEDAGRTPIADLARVVEAAINAGATTINIPDTVGYTMPFEFAGIISGLYERVPNIDKAIISVHTHDDLGLAVGNSLAAVHAGARQVEGAMNGIGERAGNCSLEEVIMAIKVRKDPLNVHTAINHQEIWRTSQLVSQICNMPIPANKAIVGSGAFAHSSGIHQDGVLKNRENYEIMTPESIGLNQIQLNLTSRSGRAAVKHRMDEMGYKESEYNLDNLYDAFLKLADKKGQVFDYDLEALAFIGKQQEEPEHFRLDYFSVQSGSNDIATAAVKLACGEEVKAEAANGNGPVDAVYQAINRITEYNVELVKYSLTAKGHGKDALGQVDIVANYNGRRFHGVGLATDIVESSAKAMVHVLNNIWRAAEVEKELQRKAQHNENNKETV	0.446 ± 0.12	< 0.00947
leuA I254D (protein) MSQQVIIFDTTLRDGEQALQASLSVKEKLQIALALERMGVDVMEVGFPVSSPGDFESVQTIARQVKNSRVCALARCVEKDIDVAAESLKVAEAFRIHTFIATSPMHIATKLRSTLDEVIERAIYMVKRARNYTDDVEFSCEDAGRTPIADLARVVEAAINAGATTINIPDTVGYTMPFEFAGIISGLYERVPNIDKAIISVHTHDDLGLAVGNSLAAVHAGARQVEGAMNGIGERAGNCSLEEVIMAIKVRKDDLNVHTAINHQEIWRTSQLVSQICNMPIPANKAIVGSGAFAHSSGIHQDGVLKNRENYEIMTPESIGLNQIQLNLTSRSGRAAVKHRMDEMGYKESEYNLDNLYDAFLKLADKKGQVFDYDLEALAFIGKQQEEPEHFRLDYFSVQSGSNDIATAAVKLACGEEVKAEAANGNGPVDAVYQAINRITEYNVELVKYSLTAKGHGKDALGQVDIVANYNGRRFHGVGLATDIVESSAKAMVHVLNNIWRAAEVEKELQRKAQHNENNKETV	0.3212 ± 0.0018	< 0.00996
leuA I254Q (protein) MSQQVIIFDTTLRDGEQALQASLSVKEKLQIALALERMGVDVMEVGFPVSSPGDFESVQTIARQVKNSRVCALARCVEKDIDVAAESLKVAEAFRIHTFIATSPMHIATKLRSTLDEVIERAIYMVKRARNYTDDVEFSCEDAGRTPIADLARVVEAAINAGATTINIPDTVGYTMPFEFAGIISGLYERVPNIDKAIISVHTHDDLGLAVGNSLAAVHAGARQVEGAMNGIGERAGNCSLEEVIMAIKVRKDQLNVHTAINHQEIWRTSQLVSQICNMPIPANKAIVGSGAFAHSSGIHQDGVLKNRENYEIMTPESIGLNQIQLNLTSRSGRAAVKHRMDEMGYKESEYNLDNLYDAFLKLADKKGQVFDYDLEALAFIGKQQEEPEHFRLDYFSVQSGSNDIATAAVKLACGEEVKAEAANGNGPVDAVYQAINRITEYNVELVKYSLTAKGHGKDALGQVDIVANYNGRRFHGVGLATDIVESSAKAMVHVLNNIWRAAEVEKELQRKAQHNENNKETV	0.429 ± 0.2	< 0.011
leuA I254W (protein) MSQQVIIFDTTLRDGEQALQASLSVKEKLQIALALERMGVDVMEVGFPVSSPGDFESVQTIARQVKNSRVCALARCVEKDIDVAAESLKVAEAFRIHTFIATSPMHIATKLRSTLDEVIERAIYMVKRARNYTDDVEFSCEDAGRTPIADLARVVEAAINAGATTINIPDTVGYTMPFEFAGIISGLYERVPNIDKAIISVHTHDDLGLAVGNSLAAVHAGARQVEGAMNGIGERAGNCSLEEVIMAIKVRKDWLNVHTAINHQEIWRTSQLVSQICNMPIPANKAIVGSGAFAHSSGIHQDGVLKNRENYEIMTPESIGLNQIQLNLTSRSGRAAVKHRMDEMGYKESEYNLDNLYDAFLKLADKKGQVFDYDLEALAFIGKQQEEPEHFRLDYFSVQSGSNDIATAAVKLACGEEVKAEAANGNGPVDAVYQAINRITEYNVELVKYSLTAKGHGKDALGQVDIVANYNGRRFHGVGLATDIVESSAKAMVHVLNNIWRAAEVEKELQRKAQHNENNKETV	0.624 ± 0.25	< 0.0131
